# Reference: US20100074867A1, “P1-NONEPIMERIZABLE KETOAMIDE INHIBITORS OF HCV NS3 PROTEASE” (Schering Corporation Patent Department, K-6-1; 1990, priority 2007, published 2010)
# Molecular target: HCV NS3/NS4A protease (strain 1a) (Hepatitis C virus genotype 1a, UniProt P27958)
# Test: HCV continuous spectrophotometric protease assay
# Type: biochemical
# Settings: Ki*, ranges of Ki* values in nM
# Excerpt: Spectrophotometric Assay Spectrophotometric assay for the HCV serine protease can be performed on the inventive compounds by following the procedure described by R. Zhang et al, Analytical Biochemistry, 270 (1999) 268-275, the disclosure of which, is incorporated herein by reference. The assay based on the proteolysis of chromogenic ester substrates is suitable for the continuous monitoring of HCV NS3 protease activity. The substrates are derived from the P side of the NS5A-NS5B junction sequence (Ac-DTEDVVX(Nva), where X=A or P) whose C-terminal carboxyl groups are esterified with one of four different chromophoric alcohols (3- or 4-nitrophenol, 7-hydroxy-4-methyl-coumarin, or 4-phenylazophenol). Illustrated below are the synthesis, characterization and application of these novel spectrophotometric ester substrates to high throughput screening and detailed kinetic evaluation of HCV NS3 protease inhibitors.
# • Materials: Chemical reagents for assay related buffers are obtained from Sigma Chemical Company (St. Louis, Mo.). Reagents for peptide synthesis were from Aldrich Chemicals, Novabiochem (San Diego, Calif.), Applied Biosystems (Foster City, Calif.) and Perseptive Biosystems (Framingham, Mass.). Peptides are synthesized manually or on an automated ABI model 431A synthesizer (from Applied Biosystems). UV/VIS Spectrometer model LAMBDA 12 was from Perkin Elmer (Norwalk, Conn.) and 96-well UV plates were obtained from Corning (Corning, N.Y.). The prewarming block can be from USA Scientific (Ocala, Fla.) and the 96-well plate vortexer is from Labline Instruments (Melrose Park, Ill.). A Spectramax Plus microtiter plate reader with monochrometer is obtained from Molecular Devices (Sunnyvale, Calif.). […] Protein concentrations are determined by the Biorad dye method using recombinant HCV protease standards previously quantified by amino acid analysis. Prior to assay initiation, the enzyme storage buffer (50 mM sodium phosphate pH 8.0, 300 mM NaCl, 10% glycerol, 0.05% lauryl maltoside and 10 mM DTT) is exchanged for the assay buffer (25 mM MOPS pH 6.5, 300 mM NaCl, 10% glycerol, 0.05% lauryl maltoside, 5 μM EDTA and 5 μM DTT) utilizing a Biorad Bio-Spin P-6 prepacked column. Substrate Synthesis and Purification: The synthesis of the substrates is done as reported by R. Zhang et al, (ibid.) and is initiated by anchoring Fmoc-Nva-OH to 2-chlorotrityl chloride resin using a standard protocol (K. Barlos et al, Int. J. Pept. Protein Res., 37 (1991), 513-520). The peptides are subsequently assembled, using Fmoc chemistry, either manually or on an automatic ABI model 431 peptide synthesizer. […] The combined filtrate and DCM wash is evaporated azeotropically (or repeatedly extracted by aqueous Na2CO3 solution) to remove the acid used in cleavage. The DCM phase is dried over Na2SO4 and evaporated.
# The ester substrates are assembled using standard acid-alcohol coupling procedures (K. Holmber et al, Acta Chem. Scand., B33 (1979) 410-412). Peptide fragments are dissolved in anhydrous pyridine (30-60 mg/ml) to which 10 molar equivalents of chromophore and a catalytic amount (0.1 eq.) of para-toluenesulfonic acid (pTSA) were added. Dicyclohexylcarbodiimide (DCC, 3 eq.) is added to initiate the coupling reactions. Product formation is monitored by HPLC and can be found to be complete following 12-72 hour reaction at room temperature. Pyridine solvent is evaporated under vacuum and further removed by azeotropic evaporation with toluene. The peptide ester is deprotected with 95% TFA in DCM for two hours and extracted three times with anhydrous ethyl ether to remove excess chromophore. The deprotected substrate is purified by reversed phase HPLC on a C3 or C8 column with a 30% to 60% acetonitrile gradient (using six column volumes).
row,Compound,Ki [nM]
1,CCC[C@H]1C[C@]1(NC(=O)[C@@H]1[C@@H]2[C@H](CN1C(=O)[C@@H](NC(=O)NC1(CS(=O)(=O)C(C)(C)C)CCCCC1)C(C)(C)C)C2(C)C)C(=O)C(=O)NC1CC1 [14Z],1000 to 5000

# Same assay, conditions: ranges of Ki* values in nM, read-out: Ki*
row,Compound,Ki [nM]
1,CCNC(=O)C(=O)[C@]1(NC(=O)[C@@H]2[C@@H]3[C@H](CN2C(=O)[C@@H](NC(=O)NC2([C@@H](C)S(=O)(=O)C(C)(C)C)CCCCC2)C2(C)CCCCC2)C3(C)C)C[C@H]1CC [68Z],5000 to 10000
2,CC[C@H]1CC1(NC(=O)[C@@H]1[C@@H]2[C@H](CN1C(=O)[C@@H](NC(=O)NC1(C3CCCS3(=O)=O)CCCCC1)C(C)(C)C)C2(C)C)C(=O)C(N)=O (stereo partly shown) [27Z],< 500
3,CCNC(=O)C(=O)[C@]1(NC(=O)[C@@H]2[C@@H]3[C@H](CN2C(=O)[C@@H](NC(=O)NC2([C@H](C)S(=O)(=O)C(C)(C)C)CCCCC2)C(C)(C)C)C3(C)C)C[C@H]1CC [62Z],< 500
4,CC1(C)CC(=O)N(C[C@@H](NC(=O)N[C@H](C(=O)N2C[C@H]3[C@@H]([C@H]2C(=O)NC2(C(=O)C(=O)NC4CC4)CC2)C3(C)C)C(C)(C)C)C(C)(C)C)C(=O)C1 [20Z],> 10000
5,C[C@@H]1C[C@@]1(NC(=O)[C@@H]1[C@@H]2[C@H](CN1C(=O)[C@@H](NC(=O)N[C@H](CN1C(=O)CC(C)(C)CC1=O)C(C)(C)C)C(C)(C)C)C2(C)C)C(=O)C(=O)NC1CC1 [33Z],1000 to 5000
6,CC[C@@H]1C[C@@]1(NC(=O)[C@@H]1[C@@H]2[C@H](CN1C(=O)[C@@H](NC(=O)N[C@H](CN1C(=O)CC(C)(C)CC1=O)C(C)(C)C)C(C)(C)C)C2(C)C)C(=O)C(N)=O [10Z],< 500
7,CCNC(=O)C(=O)[C@]1(NC(=O)[C@@H]2[C@@H]3[C@H](CN2C(=O)[C@@H](NC(=O)NC2(CS(=O)(=O)C(C)(C)C)CCCCC2)C2CCCCC2)C3(C)C)C[C@H]1CC [46Z],1000 to 5000
8,CCNC(=O)C(=O)[C@@]1(NC(=O)[C@@H]2[C@@H]3[C@H](CN2C(=O)[C@@H](NC(=O)NC2([C@@H](C)S(=O)(=O)C(C)(C)C)CCCCC2)C2(C)CCCCC2)C3(C)C)C[C@@H]1CC [67Z],5000 to 10000
9,CN(C[C@@H](NC(=O)N[C@H](C(=O)N1C[C@H]2[C@@H]([C@H]1C(=O)NC1(C(=O)C(=O)NC3CC3)CC1)C2(C)C)C(C)(C)C)C(C)(C)C)S(C)(=O)=O [19Z],1000 to 5000
10,CCNC(=O)C(=O)[C@]1(NC(=O)[C@@H]2[C@@H]3[C@H](CN2C(=O)[C@@H](NC(=O)NC2([C@@H](C)S(=O)(=O)C(C)(C)C)CCCCC2)C(C)(C)C)C3(C)C)C[C@H]1CC [64Z],< 500
11,CC[C@H]1C[C@]1(NC(=O)[C@@H]1[C@@H]2[C@H](CN1C(=O)[C@@H](NC(=O)NC1(CS(=O)(=O)C(C)(C)C)CCCCC1)C(C)(C)C)C2(C)C)C(=O)C(=O)NC1CC1 [2Z],1000 to 5000
12,CCNC(=O)C(=O)C1(NC(=O)[C@@H]2[C@@H]3[C@H](CN2C(=O)[C@H](NC(=O)NC2([C@@H](C)S(=O)(=O)C(C)(C)C)CCCCC2)C2Cc4ccccc4C2)C3(C)C)CC1CC (stereo partly shown) [35Z],1000 to 5000
13,CCC[C@H]1C[C@@]1(NC(=O)[C@@H]1[C@@H]2[C@H](CN1C(=O)[C@@H](NC(=O)N[C@H](CN1C(=O)CC(C)(C)CC1=O)C(C)(C)C)C(C)(C)C)C2(C)C)C(=O)C(=O)NC1CC1 [16Z],500 to 1000
14,C[C@H]1CC1(NC(=O)[C@@H]1[C@@H]2[C@H](CN1C(=O)[C@@H](NC(=O)NC1(CS(=O)(=O)C(C)(C)C)CCCCC1)C(C)(C)C)C2(C)C)C(=O)C(=O)NC1CC1 (stereo partly shown) [30Z],1000 to 5000
15,CC[C@@H]1C[C@@]1(NC(=O)[C@@H]1[C@@H]2[C@H](CN1C(=O)[C@@H](NC(=O)NC(C)(C)C)C(C)(C)C)C2(C)C)C(=O)C(N)=O [9Z],> 10000
16,CCNC(=O)C(=O)[C@@]1(NC(=O)[C@@H]2[C@@H]3[C@H](CN2C(=O)[C@@H](NC(=O)N[C@H](CN2C(=O)CC(C)(C)CC2=O)C(C)(C)C)C(C)(C)C)C3(C)C)C[C@@H]1CC [55Z],< 500
17,CC[C@H]1C[C@]1(NC(=O)[C@@H]1[C@@H]2[C@H](CN1C(=O)[C@@H](NC(=O)NC1(CS(=O)(=O)C(C)(C)C)CCCCC1)C1CCCCC1)C2(C)C)C(=O)C(=O)NCC1CC1 [47Z],500 to 1000

row,Compound,Ki [nM]
1,CC[C@H]1C[C@]1(NC(=O)[C@@H]1[C@@H]2[C@H](CN1C(=O)[C@@H](NC(=O)NC1(CS(=O)(=O)C(C)(C)C)CCCCC1)C(C)(C)C)C2(C)C)C(=O)C(N)=O [5Z],500 to 1000
2,CCC[C@H]1CC1(NC(=O)[C@@H]1[C@@H]2[C@H](CN1C(=O)[C@@H](NC(=O)NC1(C3CCCS3(=O)=O)CCCCC1)C(C)(C)C)C2(C)C)C(=O)C(=O)NC1CC1 (stereo partly shown) [25Z],< 500
3,CC[C@H]1C[C@]1(NC(=O)[C@@H]1[C@@H]2[C@H](CN1C(=O)[C@@H](NC(=O)NC1(CS(=O)(=O)C(C)(C)C)CCCCC1)C1CCCCC1)C2(C)C)C(=O)C(=O)NC1CC1 [43Z],500 to 1000
4,CC(C)(C)[C@H](NC(=O)NC1(CS(=O)(=O)C(C)(C)C)CCCCC1)C(=O)N1C[C@H]2[C@@H]([C@H]1C(=O)NC1(C(=O)C(=O)NC3CC3)CC1)C2(C)C [18Z],> 10000
5,CCNC(=O)C(=O)[C@]1(NC(=O)[C@@H]2[C@@H]3[C@H](CN2C(=O)[C@@H](NC(=O)NC2([C@H](C)S(=O)(=O)C(C)(C)C)CCCCC2)C2(C)CCCCC2)C3(C)C)C[C@H]1CC [66Z],500 to 1000
6,CC[C@H]1C[C@]1(NC(=O)[C@@H]1[C@@H]2[C@H](CN1C(=O)[C@@H](NC(=O)N[C@H](CN1C(=O)CC(C)(C)CC1=O)C(C)(C)C)C(C)(C)C)C2(C)C)C(=O)C(=O)NCC1CC1 [53Z],< 500
7,CCC1CC1(NC(=O)[C@@H]1[C@@H]2[C@H](CN1C(=O)[C@H](NC(=O)NC1([C@@H](C)S(=O)(=O)C(C)(C)C)CCCCC1)C1Cc3ccccc3C1)C2(C)C)C(=O)C(=O)NC1CC1 (stereo partly shown) [41Z],1000 to 5000
8,CC[C@H]1C[C@]1(NC(=O)[C@@H]1[C@@H]2[C@H](CN1C(=O)[C@@H](NC(=O)NC1([C@@H](C)S(=O)(=O)C(C)(C)C)CCCCC1)C1(C)CCCCC1)C2(C)C)C(=O)C(=O)NCC1CC1 [71Z],500 to 1000
9,CC[C@@H]1C[C@@]1(NC(=O)[C@@H]1[C@@H]2[C@H](CN1C(=O)[C@@H](NC(=O)NC1(CS(=O)(=O)C(C)(C)C)CCCCC1)C(C)(C)C)C2(C)C)C(=O)C(N)=O [4Z],< 500
10,CC[C@@H]1C[C@@]1(NC(=O)[C@@H]1[C@@H]2[C@H](CN1C(=O)[C@@H](NC(=O)NC1([C@@H](C)S(=O)(=O)C(C)(C)C)CCCCC1)C1(C)CCCCC1)C2(C)C)C(=O)C(N)=O [81Z],1000 to 5000
11,CC[C@@H]1C[C@@]1(NC(=O)[C@@H]1[C@@H]2[C@H](CN1C(=O)[C@@H](NC(=O)NC1(CS(=O)(=O)C(C)(C)C)CCCCC1)C1CCCCC1)C2(C)C)C(=O)C(=O)NCC1CC1 [48Z],1000 to 5000
12,CC[C@@H]1C[C@@]1(NC(=O)[C@@H]1[C@@H]2[C@H](CN1C(=O)[C@@H](NC(=O)N[C@H](CN(C)S(C)(=O)=O)C(C)(C)C)C(C)(C)C)C2(C)C)C(=O)C(=O)NC1CC1 [85Z],500 to 1000
13,CC[C@@H]1C[C@@]1(NC(=O)[C@@H]1[C@@H]2[C@H](CN1C(=O)[C@@H](NC(=O)NC1([C@@H](C)S(=O)(=O)C(C)(C)C)CCCCC1)C1(C)CCCCC1)C2(C)C)C(=O)C(=O)NCC1CC1 [72Z],1000 to 5000
14,CC[C@@H]1C[C@@]1(NC(=O)[C@@H]1[C@@H]2[C@H](CN1C(=O)[C@@H](NC(=O)NC1([C@@H](C)S(=O)(=O)C(C)(C)C)CCCCC1)C1(C)CCCCC1)C2(C)C)C(=O)C(=O)NC1CC1 [80Z],< 500
15,CC[C@H]1C[C@]1(NC(=O)[C@@H]1[C@@H]2[C@H](CN1C(=O)[C@@H](NC(=O)NC1([C@H](C)S(=O)(=O)C(C)(C)C)CCCCC1)C(C)(C)C)C2(C)C)C(=O)C(=O)NCC1CC1 [57Z],< 500
16,CC[C@@H]1C[C@@]1(NC(=O)[C@@H]1[C@@H]2[C@H](CN1C(=O)[C@@H](NC(=O)NC1([C@H](C)S(=O)(=O)C(C)(C)C)CCCCC1)C(C)(C)C)C2(C)C)C(=O)C(=O)NCC1CC1 [58Z],1000 to 5000
